Measurements taken from ChEMBL document CHEMBL4888484, “Replenishing the malaria drug discovery pipeline: Screening and hit evaluation of the MMV Hit Generation Library 1 (HGL1) against asexual blood stage Plasmodium falciparum ,using a nano luciferase reporter read-out” (2022).
The campaign covered roughly 150,000 compounds. About 540 (0.36%) showed an effect of 50% or more. Some of the results follow.

These molecules were tested on Plasmodium falciparum (assay: Primary screen in NF54 nanoGlo assay, in single point, at 2uM, 72h; a lower Z score goes with more inhibition). Details: timepoint 72 hour.
Format: functional, Erythrocyte

| SMILES | % Inhibition [%] | Z score |
| --- | --- | --- |
| O=C(Nc1ccn(Cc2ccccc2F)n1)c1ccc(COc2ccc(Cl)cc2Cl)o1 | -36 | 4.24 |
| C#CCN(Cc1ccco1)C(=O)C[C@]1(c2ccc(OC)cc2)CC(=O)N(C2CC2)C1=O | -14 | 2.32 |
| C1=CCN(c2nc(-c3ccncc3)nc3c2CCNCC3)C1 | -5 | 1.03 |
| COc1c(C(=O)Nc2cccc(F)c2)oc2ccc(NC(=O)C3CCCCC3)cc12 | -8 | 1.57 |
| Cc1nc(C(C)C)ncc1C(=O)N1CC[C@@H](CO)[C@@H](O)C1 | -12 | 1.42 |
| CN(C)c1ccc(C(=O)N2CCC(Cn3nc4c(cc3=O)CCC4)CC2)nn1 | -6 | 0.85 |
| CN(C[C@H]1CC(=O)N(C(C)(C)C)C1)C(=O)c1cnc(N)s1 | -7 | 1.41 |
| CCN(CCOC(=O)Nc1ccccc1F)c1ccccc1 | 3 | -0.5 |
| COc1ccccc1-c1cc2nc(C)cc(N3CCN(C4CCCCC4)CC3)n2n1 | -7 | 1.4 |
| Cc1ccc(-c2ccc(C)nn2)c(-n2cccn2)c1 | -10 | 1.08 |
| CCn1c([C@H]2CCCN(C(=O)c3ccc4c(=O)n(C)cnc4c3)C2)n[nH]c1=O | -13 | 1.63 |
| N#Cc1cc2cc(Cl)cnc2nc1N1CCCCC1 | 39 | -4.97 |
| CNc1nc(C(=O)NCc2cnn(C(C)C)c2)cs1 | -6 | 0.67 |
| CCCc1nnc(N2CCC(OCCN(C)C)CC2)o1 | -4 | 0.81 |
| Cc1cc([C@@H](C)C(=O)N2CCN(CCO)CC2)c(C)o1 | -8 | 1.05 |
| O=S(=O)(Nc1ccccn1)N1CCCC1 | -5 | 0.82 |
| CCc1csc(CCNC(=O)c2c[nH]nc2-c2ccccc2)n1 | -13 | 1.27 |
| CC(C)c1noc(CN2CCC[C@H]2c2ccsc2)n1 | 9 | -1.34 |
| COc1cncc(C(NC(=O)CCN2Cc3ccccc3C2)[C@H]2C[C@@H](O)C2)c1 (stereo partly drawn) | -7 | 1.36 |
| COc1ccc(CNC(=O)c2ccc(-n3nc4c(c3-c3ccccc3F)CCCC4)cc2)cc1 | 0 | -0.04 |
| O=C(NC[C@H]1CCCO1)C1CCN(Cn2ncc3ccccc3c2=O)CC1 | 0 | 0.04 |

| SMILES | % Inhibition [%] | Z score |
| --- | --- | --- |
| Cc1nc(C(=O)N(Cc2ccc(F)cc2)CC2CC2)ccc1C(=O)O | 3 | -0.47 |
| CC(C)(NC[C@]1(O)CCCN(Cc2cccc(F)c2F)C1=O)c1ccccc1 | -10 | 1.22 |
| COCCCNc1nc2c(cc1C#N)CCC2 | -4 | 0.76 |
| Cc1sc(NC(=O)c2ccc3c(c2)OCCO3)c(C(=O)NCc2cccnc2)c1C | -26 | 2.95 |
| CCCc1nnsc1C(=O)NCC#CCN(C)Cc1ccccc1 | 2 | -0.28 |
| COCCOCc1nc([C@@H]2CCCCN2C(=O)Nc2ccccc2F)no1 | 1 | -0.2 |
| CC[C@H](OC)C(=O)Nc1nn(Cc2ccccc2)c2cccc(N3CCOCC3)c12 | 12 | -1.54 |
| O=C(NCc1cc(-c2cccc(F)c2)no1)c1cnc[nH]1 | -8 | 1.19 |
| C=C1C2CCC3(C4C[C@@H]5[C@@]6(C)CCC[C@]5(C3[C@H]2O)[C@@H]4N(CC)C6)[C@@H]1O (stereo partly drawn) | 31 | -3.48 |
| Cn1cccc(C(=O)N2CCCC[C@H]2c2cc(C(N)=O)[nH]n2)c1=O | 13 | -1.73 |
| Cc1cccc2c1ncn1nc(-c3ccoc3)nc21 | 0 | -0.06 |
| Fc1ccc(Br)cc1Cn1nnc(C2CCOCC2)n1 | -2 | 0.36 |
| COc1cccc(C(=O)N(Cc2ccc(C)cc2)c2cccc(CC(=O)N(C)Cc3ccccc3)c2)c1 | -13 | 1.66 |
| CC(C)(C)n1nnc(CNc2ccc(CCO)nc2)n1 | 6 | -1.16 |
| COC[C@H]1[C@H](NC(=O)c2cc(=O)[nH]c3ccccc23)[C@H]2CCO[C@H]21 | -8 | 1.02 |
| CCOc1ccc(-c2nc(CON=C(N)CN(C)C)co2)cc1 | -3 | 0.59 |
| CCOC[C@H]1CCN(C(=O)C2CCN(c3ccc(C)cn3)CC2)C1 | -4 | 0.53 |
| COc1ccccc1N1CCN(C(=O)Cn2ncc3c([nH]c4ccccc43)c2=O)CC1 | 10 | -1.58 |
| Cc1ccc(CN2C(=O)[C@@H]3CC[C@H]2C3)c2ccccc12 | 3 | -0.44 |
| N#CC1(NC(=O)c2ncoc2-c2cccs2)CCCC1 | -2 | 0.31 |
| Cc1cccc([C@H]2C(=O)NCCN2Cc2cc(C(=O)O)cs2)c1 | 0 | -0.01 |

| SMILES | % Inhibition [%] | Z score |
| --- | --- | --- |
| COCCn1cc(NC(=O)N(C2CC2)[C@@H](C)C2CC2)cn1 | 1 | -0.1 |
| CCCNC(=O)N(C)CCc1c(C)nn(CC)c1C | -4 | 0.46 |
| COCC(=O)Nc1ccc(OC)cc1Br | -3 | 0.4 |
| O=S(=O)(CCCOc1ccccc1)N1CCc2ncncc2C1 | -5 | 0.89 |
| Cc1cnc(CNC(=O)Cn2c(C)nn(-c3ccc(Cl)cc3)c2=O)cn1 | -18 | 3.41 |
| O=C1C(N2CCCCC2c2nccs2)CCN1CC(F)(F)F (stereo not drawn) | -1 | 0.21 |
| O=C(Cn1nc(C(F)(F)F)c2c1CCOC2)NCc1nccs1 | -7 | 1.35 |
| CC1CCCCC1NC(=O)CC(C)(C)C (stereo not drawn) | -5 | 0.64 |
| CCOC(=O)CCC(=O)N1CCN(C[C@H](OCc2ccc(C(=O)OC)cc2)c2cccc(OC)c2)CC1 | -8 | 1.08 |
| COC(=O)[C@@H](C)NC(=O)[C@H]1CN(C(=O)Nc2ccccc2)CCN1C(=O)NC(C)C | -7 | 1.06 |
| NC(=O)c1ccc(COc2ccc(C(=O)c3ccc(F)cc3)cc2)cc1 | -33 | 3.92 |
| CC(C)(C)OC(=O)NC1CCCC1C(=O)NCC(F)(F)F (stereo not drawn) | -8 | 1.18 |
| O=C1CC(CC(=O)N2CCCCC2CO)(c2ccccc2)C(=O)N1CCc1ccccn1 (stereo not drawn) | 4 | -0.65 |
| CC[C@@H](C(=O)Nc1cccc(-c2cn[nH]c2)c1)N(C)C | -1 | 0.15 |
| CC(C)c1cc(C(=O)N(C)c2ccc(Br)cn2)no1 | -10 | 1.29 |
| Cc1nc(N(C)C)nc(C)c1NC(=O)C(C)(C)C | -5 | 0.82 |
| CN1C(=O)CCCC[C@H]1C(=O)NCc1ccncc1 | 3 | -0.31 |
| Cc1cccc(CNC(=O)CCn2ccnn2)n1 | -6 | 0.68 |
| C=CCN1C[C@@H](c2nc(-c3ccc(CC)cc3)c[nH]2)CC1=O | -9 | 1.56 |
| CCC(C)c1ccccc1N1CC(C(=O)Nc2ccc(N3CCCC3=O)c(C)c2)CC1=O (stereo not drawn) | 0 | 0.02 |
| O=S(=O)(NCCCC[C@H]1CCCO1)N1CCCC1 | -14 | 2.51 |

| SMILES | % Inhibition [%] | Z score |
| --- | --- | --- |
| CC(=O)NC[C@@H]1CN(c2nnc(C(F)(F)F)s2)C[C@H]1c1cncn1C | -4 | 0.59 |
| c1nc2nc[nH]c(NC3CCCCC3)c-2n1 | 35 | -4.76 |
| CCS(=O)(=O)NCCCNC(=O)c1cc(C)c(C)cc1Cl | -7 | 1.27 |
| Cc1n[nH]c(C)c1NC(=O)C1=NO[C@@H](CNC(=O)OC(C)(C)C)C1 | 33 | -1.29 |
| Cn1cnc2cc(NC(=O)C3CCN(c4noc5ccc(Cl)cc45)CC3)ccc21 | -6 | 0.79 |
| Cn1nc(-c2ccsc2)nc1C1CN(C(=O)NC2CCCCC2)C1 | -1 | 0.23 |
| CCCCN(CC)C(=O)[C@@H](c1cnn(C)c1)N1CCOCC1 | -19 | 2.44 |
| CC(C)(C)c1nnc(N2CCN(Cc3ccc4c(c3)OCO4)CC2)o1 | 5 | -0.44 |
| Cn1nc(C2CCCCC2)cc1NC(=O)c1cccc(N)c1 | 17 | -1.93 |
| Oc1ccccc1CNc1cccc2c[nH]nc12 | -4 | 0.68 |
| CCOC(=O)c1cc(-c2ccc(N3CCN(C(=O)c4ccc(OC)c(F)c4)CC3)cc2)n(-c2ccc(OC)cc2)n1 | -9 | 1.05 |
| COc1ccc(OC)c(NC(=O)Cn2cnc3nc(N4CCOCC4)ncc3c2=O)c1 | 37 | -0.92 |
| CCCc1cc(C(=O)N2C[C@@H]3CC[C@H]2CN(Cc2c(C)noc2C)C3)n(C)n1 | -4 | 0.51 |
| Cc1cccc(-n2ncc3c(O)c(C(=O)NCc4ccc(F)cc4F)c(=O)[nH]c32)c1 | -17 | 2.22 |
| COc1cc(CC(=O)N2C3CCC2Cn2c(n[nH]c2=O)C3)cc(OC)c1 (stereo not drawn) | -2 | 0.28 |
| CCCn1nccc1NC(=O)NCc1cnnn1CC | -1 | 0.15 |
| CCN(CC)C(=O)c1cnc2nc(C)ccc2c1Nc1cc(C)ccc1C | -7 | 1.06 |
| Cc1cc(C)c(-c2ccc(C(=O)N(C)CCn3ccnc3C)cc2)cc1C | -5 | 0.69 |
| Cc1csc(CN[C@@H](C)c2nc(C3CCCCC3)no2)n1 | 2 | -0.28 |
| O=C1CN(C(=O)c2cccc(NC(=O)CC3(N4Cc5ccccc5C4=O)CCCCC3)c2)CCN1 | -2 | 0.3 |
| COc1cccc(C(C)N2CCCC(CN3CCOCC3)C2)c1 (stereo not drawn) | -6 | 0.87 |
